Out of some 1,200 compounds screened, about 210 (18%) were called active. Rule as the data show it: active = inhibition above about 30%; inactive = the rest. Only a part is listed here, and it is no random draw.
Test: HTRF signal interference by compounds, confirmation, artefact control for SUMOylation inhibitor project, biochemical, uHTS (AID 2069)
Settings: HTRF interference counterscreen, fluorescence, at 35 µM, active compounds read high

Row | Compound | inhibition
1 | COC12NC(=O)N(C)C1(OC)C(=O)N(C)C(=O)N2C (centres undefined) | inactive: -5.9%
2 | Clc1ccc(-c2nnc3c4ccccc4nc(N4CCOCC4)n23)cc1Cl | inactive: -0.4%
3 | O=C1C=C(N2CCOCC2)c2ccccc2C1=O | active: 51.9%
4 | CNCc1ccccc1Sc1ccc(O)c(O)c1 | inactive: 14.3%
5 | CN(CCO)c1nc(N)c2c(N)nc3c(c2c1C#N)CC(=O)N3C1CCCC1 | active: 43.9%
6 | O=C(Nc1cccc2nsnc12)c1ccc(-c2cccc(Cl)c2)o1 | inactive: 25.9%
7 | CCn1c2ccccc2c2c3ncc4cccn4c3ccc21 | active: 31.1%
8 | COc1ccc(O)c(C(c2c(C)[nH][nH]c2=O)c2c(C)[nH][nH]c2=O)c1 | inactive: -9.05%
9 | O=C(O)CCCCCNc1ccc2nsnc2c1[N+](=O)[O-] | inactive: 6.25%
10 | O=C(NC1(O)C(=O)c2ccccc2C1=O)c1c(Cl)cccc1Cl | active: 50.4%
11 | O=C(O)CCCCC1CCSS1 (centres undefined) | inactive: 20.6%
12 | NC(N)=N/N=C/c1cc([N+](=O)[O-])ccc1O | inactive: -11.6%
13 | Cc1ccc(CSc2nnc(SCC(=O)N/N=C/c3c[nH]c4ccccc34)s2)cc1 | inactive: -3.9%
14 | Cc1cccn2c(=O)c3cc(S(=O)(=O)c4ccc(F)cc4)c(=N)n(Cc4ccco4)c3nc12 | inactive: 16%
15 | CN(C)c1ccc(NC(=O)CSc2nnc(-c3ccco3)c(-c3ccco3)n2)cc1 | inactive: -11.5%
16 | NC(CO)C(=O)NNCc1ccc(O)c(O)c1O (centres undefined) | inactive: 13.7%
17 | O=C1C(Cl)=C(N2CCC(C(=O)O)CC2)C(=O)c2ccccc21 | inactive: 1.75%
18 | COc1cc(CNc2ccc(O)cc2)cc(Br)c1OCc1ccccc1 | inactive: -13.9%
19 | O=C1/C(=C/c2ccco2)Oc2c1ccc(O)c2CN1CCCCC1 | active: 37.6%
20 | CN(C)/C=C1/Oc2c(ccc3ccccc23)C1=O | inactive: -16.7%
21 | COc1ccc(-c2ccc(C(c3c(C)[nH][nH]c3=O)c3c(C)[nH][nH]c3=O)o2)c([N+](=O)[O-])c1 | inactive: 1.45%
22 | Cc1oc2c(c(C)cc3oc(=O)c(CC(=O)NCC(=O)NCC(=O)NCC(C)O)c(C)c32)c1C (centres undefined) | active: 47.8%
23 | COc1cccc(CNc2cccc3cccnc23)c1O | inactive: -9.2%
24 | Cc1ccccc1C(=O)Nc1nnc(CC(=O)N/N=C/c2cn(Cc3ccccc3)c3ccccc23)s1 | inactive: 3.35%

Row | Compound | inhibition
25 | CC(C)NC(=O)N1CCC(n2nccc2NC(=O)CCOc2ccccc2)CC1 | inactive: -7.8%
26 | Fc1ccc(NC(=S)Nc2cccc3ccccc23)cc1 | inactive: 2.35%
27 | Cc1cccc(N(C)C(=O)c2cc3c(=O)[nH]c4ccc(C)cc4c3s2)c1 | inactive: -2.9%
28 | Oc1ccc2ccccc2c1C=NCc1ccccc1 | inactive: 21.1%
29 | CCOC(=O)c1ccc(N2C(=O)c3n[nH]c(-c4ccco4)c3C2c2ccc([N+](=O)[O-])cc2)cc1 (centres undefined) | inactive: 2.65%
30 | CN1C(=O)N(C)c2ccc(C=O)c3cccc1c23 | inactive: 7.55%
31 | O=C1C=C(O)c2cccc(O)c2C1=O | inactive: -10.9%
32 | Oc1ccc(NCc2ccccc2OCc2ccccc2F)cc1 | inactive: -9.2%
33 | COc1ccccc1/C=C/CN1CCN(c2ccccc2)CC1 | inactive: 12.9%
34 | Cc1occc1C(=O)N1CCN(c2ccccc2)CC1 | inactive: 0.55%
35 | S=c1[nH]nc(-c2ccco2)n1/N=C/C=C/c1ccco1 | inactive: -3.85%
36 | O=C(N/N=C/c1ccc([N+](=O)[O-])o1)c1cn2ccc3ccccc3c2n1 | inactive: 0%
37 | COc1cc2c(C#N)c(N3CCN(c4ccccc4OC)CC3)nc(N)c2c(N)n1 | inactive: 16.6%
38 | Cc1ccc(NC(=S)Nc2cccc3ccccc23)cc1 | inactive: -5.1%
39 | C=CCN(CC=C)C(=S)Nc1ccc2nsnc2c1 | inactive: 17%
40 | Cc1oc2c(c(C)cc3oc(=O)c(CC(=O)N[C@@H](C)C(=O)O)c(C)c32)c1C | active: 53.8%
41 | CCN(CC)c1ccc(NC(=O)CSc2nc(C3CC3)nc3ccccc23)cc1C | inactive: 3.8%
42 | CC1OC(Nc2cccc3ccccc23)C(O)C(O)C1O (centres undefined) | inactive: 20.2%
43 | Cc1[nH]n(-c2ccccc2)c(=O)c1C(c1ccc(C(=O)O)cc1)c1c(C)[nH]n(-c2ccccc2)c1=O | inactive: -3.6%
44 | CCOC(=O)N1CCN(C(=O)c2cccn3c(=O)c4cc(Br)ccc4nc23)CC1 | active: 49.9%
45 | C=CCC(Nc1ccccc1)C12C=CC(O1)C(C(=O)OC)=C2C(=O)OC (centres undefined) | inactive: -5.2%
46 | CC(=O)Oc1ccc2c(C)c(CC(C)O)c(=O)oc2c1 (centres undefined) | active: 42.2%
47 | Oc1ccc(NC(=S)Nc2ccc(O)cc2)cc1 | inactive: 19.6%
48 | O=C(N/N=C\c1cn[nH]c1-c1ccc(Cl)cc1)c1cccs1 | inactive: 6.85%

Row | Compound | inhibition
49 | Oc1ccc(C=Nc2cccc3ncccc23)c(O)c1 | inactive: 0.25%
50 | COC(=O)c1ccccc1-c1ccc(C(c2c(C)[nH][nH]c2=O)c2c(C)[nH][nH]c2=O)o1 | inactive: -4%
51 | Cc1cc2c(N)cccc2nn1 | inactive: -4.5%
52 | N#C/C(=C/c1ccc(-c2ccccc2)o1)c1nc(-c2cccs2)cs1 | inactive: 19.3%
53 | CN(C)c1ccc(/C=N/Nc2cc(N3CCOCC3)nc(N3CCOCC3)n2)cc1 | inactive: -27.3%
54 | Oc1ccc(NCc2ccc(OCc3ccccc3)cc2)cc1 | inactive: -0.1%
55 | O=C(CNc1cccc2ccccc12)N/N=C/c1ccc(OC(=O)/C=C/c2ccco2)cc1 | inactive: -0.3%
56 | S=c1[nH]nc(-c2cccs2)n1/N=C/c1cn(-c2ccccc2)nc1-c1ccc(Cl)cc1 | inactive: -0.3%
57 | Cc1cc2c(NC(=O)Nc3ccc(F)cc3)cccc2nn1 | inactive: -6.2%
58 | COc1ccc2ccc3c(c2c1)N=C[C@]1(O3)N(C)c2ccccc2C1(C)C | inactive: -2.25%
59 | O=C(N/N=C/c1cc(Cl)cc([N+](=O)[O-])c1O)c1ccccc1NS(=O)(=O)c1cccs1 | active: 39.8%
60 | CC(=O)OCCNc1cc(SCc2ccco2)c2nonc2c1[N+](=O)[O-] | inactive: -1.55%
61 | N#Cc1c(-c2ccccc2)nc(SCC(=O)N2c3ccccc3Sc3ccccc32)[nH]c1=O | inactive: 15.3%
62 | Cc1oc2c(c1C(=O)N1CCC(C)CC1)C(=O)c1ccccc1C2=O | inactive: -1.25%
63 | CC(C)(C)c1cc[n+](C2=C([O-])c3ccccc3C(=O)/C2=N\S(=O)(=O)c2cccs2)cc1 | inactive: -1.85%
64 | O=C1CC(CC(=O)N/N=C/c2ccccc2[N+](=O)[O-])=NN1 | inactive: 2.8%
65 | O=c1[nH]c(N2CCN(c3ccccc3)CC2)nc2c1CCC2 | inactive: -16%
66 | O=S(=O)(Nc1ccc2c(c1)nc1n2CCN(Cc2ccccc2)C1)c1ccccc1 | inactive: 22.8%
67 | Cc1cc(-c2csc(NC(=O)c3ccc(C#N)cc3)n2)c(C)n1Cc1ccco1 | inactive: -7.5%
68 | O=c1oc2ccccc2c(Nc2cccc3cccnc23)c1[N+](=O)[O-] | inactive: 9.9%
69 | Cc1ccc(F)c(NC(=S)Nc2cccc3ccccc23)c1 | inactive: -4.3%
70 | N#Cc1ccc(-c2csc(NC(=O)/C=C/c3cccs3)n2)cc1 | inactive: 21.3%
71 | CN(C)c1ccc(C(=O)/C=C/c2ccco2)cc1 | inactive: 1.65%
72 | O=[N+]([O-])c1ccc2nc(CCCc3nc4ccc([N+](=O)[O-])cc4[nH]3)[nH]c2c1 | inactive: 28.1%

Row | Compound | inhibition
73 | O=[N+]([O-])c1cccc2cn[nH]c12 | inactive: -9.95%
74 | CCC(C)(C)n1nnnc1CN(Cc1cc2cc(OC)c(OC)cc2[nH]c1=O)C1CCCC1 | inactive: 7.8%
75 | O=C(c1cccn2c(=O)c3cc(Cl)ccc3nc12)N1CCOCC1 | active: 44.6%
76 | O=[N+]([O-])c1cc2c(cc1CN1CCN(CCOCCO)CC1)OCO2 | inactive: -7.45%
77 | Fc1ccc(NC(=S)Nc2cccc3cnccc23)cc1 | inactive: -7.7%
78 | CC(=O)c1ccc(NC(=S)Nc2cccc3ccccc23)cc1 | inactive: 14.1%
79 | Cc1c(CC(=O)N2CCN(C(=O)C3COc4ccccc4O3)CC2)c(=O)oc2c(C)c(O)ccc12 (centres undefined) | active: 66.6%
80 | COc1ccc(CCNC(=O)c2ccc3nc(-c4ccco4)c(-c4ccco4)nc3c2)cc1OC | inactive: 13.3%
81 | COc1cc(C2c3c(oc4ccccc4c3=O)C(=O)N2c2nccs2)ccc1O (centres undefined) | inactive: 7.95%
82 | Cc1[nH][nH]c(=O)c1C(c1ccc(-c2ccc(Cl)cc2)o1)c1c(C)[nH][nH]c1=O | inactive: -34.2%
83 | CN(Cc1ccco1)C(=O)c1cc2c(s1)-c1ccc(Cl)cc1S(=O)(=O)C2 | inactive: -9.15%
84 | O=c1c2ccccc2nc(/C=C/c2cccnc2)n1Cc1ccccc1 | active: 30.9%
85 | C/C(=C\C(=S)Nc1ccccc1)Nc1cccc2ccccc12 | inactive: -57.6%
86 | COc1ccc(N(C)C(=O)Nc2ccc3nsnc3c2)cc1 | inactive: 20.2%
87 | COc1ccc2c(c1)Cc1sc(NC(=O)c3ccccc3)nc1-2 | inactive: 13.9%
88 | Cc1ccc(NC(=S)Nc2ccc3cn[nH]c3c2)cc1 | inactive: -3.15%
89 | Cc1ccccc1NC(=O)c1ccc(N/N=C/c2ccccc2O)c([N+](=O)[O-])c1 | inactive: 24.7%
90 | CN(C)/C=N/c1nc2nccc(-c3cccnc3)n2n1 | active: 49.2%
91 | COc1cc(OC)c(C2Nc3cccc4cccc(c34)N2)c(OC)c1 | inactive: -3.6%
92 | Cc1ccccc1-c1nc2cc(N)ccc2o1 | active: 46.2%
93 | COc1cc([N+](=O)[O-])cc(/C=N/NC(=O)C(C)Nc2cccc3ccccc23)c1O (centres undefined) | inactive: -51.5%
94 | COc1ccc2oc(=O)c(/C(C)=N/NC(=O)c3ccncc3)cc2c1 | inactive: 18.8%

Source: PubChem BioAssay AID2069 (Sanford-Burnham Center for Chemical Genomics, 2009)
